Data published in article PMC7409549, “A time-resolved interaction analysis of Bem1 reconstructs the flow of Cdc42 during polar growth” (Life Science Alliance, 2020).
No constants are given. Whether binding was seen depends on the method and setting. Binding seen in cells or lysates may run through a third protein. Some results given as binding are weak or reduced against the parent protein; the word gives no strength. For part of these data: Where a sequence is shown, tags or fusion partners need not be part of it.

Amino acid sequences for entries named in this document (tags omitted).
UniProt P19658: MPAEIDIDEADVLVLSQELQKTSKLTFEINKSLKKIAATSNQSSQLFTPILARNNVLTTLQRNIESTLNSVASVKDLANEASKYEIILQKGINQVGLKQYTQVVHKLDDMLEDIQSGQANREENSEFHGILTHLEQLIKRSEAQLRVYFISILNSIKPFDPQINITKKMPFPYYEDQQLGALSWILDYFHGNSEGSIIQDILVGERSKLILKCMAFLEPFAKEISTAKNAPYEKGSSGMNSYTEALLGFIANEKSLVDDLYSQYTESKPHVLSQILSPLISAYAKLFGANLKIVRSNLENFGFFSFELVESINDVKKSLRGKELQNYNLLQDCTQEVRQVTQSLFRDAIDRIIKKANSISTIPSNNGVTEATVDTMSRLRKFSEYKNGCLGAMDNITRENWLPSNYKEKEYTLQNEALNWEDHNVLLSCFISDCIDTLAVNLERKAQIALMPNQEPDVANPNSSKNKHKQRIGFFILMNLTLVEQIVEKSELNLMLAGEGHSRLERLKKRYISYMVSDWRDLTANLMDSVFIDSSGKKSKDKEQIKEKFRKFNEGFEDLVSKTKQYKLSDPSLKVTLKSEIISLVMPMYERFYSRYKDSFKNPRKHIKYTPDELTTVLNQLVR
UniProt P19073: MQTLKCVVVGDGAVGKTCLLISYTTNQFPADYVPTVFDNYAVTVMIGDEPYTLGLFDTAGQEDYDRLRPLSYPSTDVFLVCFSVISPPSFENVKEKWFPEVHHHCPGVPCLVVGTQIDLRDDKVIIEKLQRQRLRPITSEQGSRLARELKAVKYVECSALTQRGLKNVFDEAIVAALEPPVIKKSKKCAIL

Assays:
[1] = target: T1, Bem1-mCherry-Cub-RGFP (S. cerevisiae) (UniProt P29366); experiment: split reporter; SPLIFF as a9, measured at the bud neck from completion of acto-myosin ring contraction until abscission (PCDIII)
T1 sequence: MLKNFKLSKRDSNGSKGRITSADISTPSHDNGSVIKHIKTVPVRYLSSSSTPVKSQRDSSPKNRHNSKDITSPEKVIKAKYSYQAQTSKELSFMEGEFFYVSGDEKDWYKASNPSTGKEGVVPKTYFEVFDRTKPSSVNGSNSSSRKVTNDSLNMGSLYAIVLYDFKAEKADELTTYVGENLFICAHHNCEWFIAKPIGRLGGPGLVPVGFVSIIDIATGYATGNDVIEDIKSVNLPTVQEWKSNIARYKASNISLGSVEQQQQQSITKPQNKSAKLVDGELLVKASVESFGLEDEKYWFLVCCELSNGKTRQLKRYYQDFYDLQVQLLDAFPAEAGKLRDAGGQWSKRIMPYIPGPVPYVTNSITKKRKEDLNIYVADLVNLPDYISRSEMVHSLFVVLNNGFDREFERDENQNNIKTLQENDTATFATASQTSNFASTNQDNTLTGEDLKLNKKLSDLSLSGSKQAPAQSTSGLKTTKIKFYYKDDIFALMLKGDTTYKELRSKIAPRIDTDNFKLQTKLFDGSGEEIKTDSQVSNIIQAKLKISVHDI

[2] = target: T1, Bem1-mCherry-Cub-RGFP (S. cerevisiae); experiment: split reporter; SPLIFF as a9, measured at the cell front during bud site assembly and bud growth (PCDII)
[3] = target: T2, Bem1-Cub-RUra3 (S. cerevisiae) (UniProt P29366); experiment: split reporter; split-ubiquitin (Split-Ub): a-cells with a Cub-RUra3 (CRU) fusion mated with α-cells with Nub fusions (P_CUP1), diploids as quadruplets on SD medium with 1 mg/ml 5-FOA and copper; growth = interaction; detects direct and indirect interactions
T2 sequence: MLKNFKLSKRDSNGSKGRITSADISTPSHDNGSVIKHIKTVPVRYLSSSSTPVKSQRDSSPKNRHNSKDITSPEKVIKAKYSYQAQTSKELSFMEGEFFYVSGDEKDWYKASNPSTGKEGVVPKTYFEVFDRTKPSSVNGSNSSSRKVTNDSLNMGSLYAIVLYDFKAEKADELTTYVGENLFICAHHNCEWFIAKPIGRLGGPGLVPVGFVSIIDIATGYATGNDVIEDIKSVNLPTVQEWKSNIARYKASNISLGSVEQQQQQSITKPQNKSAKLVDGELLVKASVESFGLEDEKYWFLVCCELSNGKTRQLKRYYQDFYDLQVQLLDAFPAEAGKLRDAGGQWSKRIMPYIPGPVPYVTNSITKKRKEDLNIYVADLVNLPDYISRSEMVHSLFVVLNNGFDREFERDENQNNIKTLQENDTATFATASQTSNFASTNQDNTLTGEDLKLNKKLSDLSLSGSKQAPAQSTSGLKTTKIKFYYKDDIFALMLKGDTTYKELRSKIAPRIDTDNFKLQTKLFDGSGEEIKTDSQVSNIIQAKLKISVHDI

[4] = target: T3, Bem1WK-Cub-RUra3 (S. cerevisiae) (UniProt P29366); experiment: as above
T3 sequence: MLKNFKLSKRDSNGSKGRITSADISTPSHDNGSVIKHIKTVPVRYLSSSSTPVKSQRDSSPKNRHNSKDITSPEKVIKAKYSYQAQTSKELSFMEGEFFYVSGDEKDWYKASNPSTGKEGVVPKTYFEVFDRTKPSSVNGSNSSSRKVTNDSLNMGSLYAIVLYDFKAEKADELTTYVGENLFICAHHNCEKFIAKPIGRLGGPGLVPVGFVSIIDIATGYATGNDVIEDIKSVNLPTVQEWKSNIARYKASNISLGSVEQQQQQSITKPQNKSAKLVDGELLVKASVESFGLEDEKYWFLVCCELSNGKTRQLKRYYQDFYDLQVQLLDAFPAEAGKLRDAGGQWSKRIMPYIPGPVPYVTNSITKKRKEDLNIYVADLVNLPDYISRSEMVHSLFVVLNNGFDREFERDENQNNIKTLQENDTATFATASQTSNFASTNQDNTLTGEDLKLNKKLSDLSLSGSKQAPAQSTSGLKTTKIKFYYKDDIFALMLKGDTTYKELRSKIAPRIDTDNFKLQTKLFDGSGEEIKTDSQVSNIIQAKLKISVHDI

[5] = target: T1, Bem1-mCherry-Cub-RGFP (S. cerevisiae); experiment: split reporter; SPLIFF (split-ubiquitin with mCherry-Cub-RGFP, CCG): a-cells with the CCG fusion mated with α-cells with Nub-HA fusions; conversion of CCG to CC measured by time-lapse microscopy at the site of cell fusion (PCDI); a significant positive slope = interaction

binding [1]	binding [2]	binding [3]	binding [4]	binding [5]	Substance
binds	binds	binds	binds	–	Nub-Exo70 (from UniProt P19658 1-623)
binds	binds	binds	binds	binds	Nub-Cdc42 (from UniProt P19073 1-191)
